# Some of the results follow. Values were computed here from the reads of four pooled replicates and scatter widely.
# Target: T1, Pho4 (S. cerevisiae) (UniProt P07270)
# T1 sequence: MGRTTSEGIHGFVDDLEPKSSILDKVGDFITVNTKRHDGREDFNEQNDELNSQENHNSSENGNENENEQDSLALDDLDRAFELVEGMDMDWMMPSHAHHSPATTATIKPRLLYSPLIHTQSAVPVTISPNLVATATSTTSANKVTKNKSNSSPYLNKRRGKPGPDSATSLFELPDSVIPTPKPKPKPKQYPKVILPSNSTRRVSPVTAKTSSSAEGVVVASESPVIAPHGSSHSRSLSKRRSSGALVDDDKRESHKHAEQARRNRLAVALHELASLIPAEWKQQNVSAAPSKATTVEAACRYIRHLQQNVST
# Experiment: relative binding free energy (BET-seq); higher = weaker binding
# Conditions: reference: library average
row,Sequence,relative binding free energy [kcal/mol]
1,ACTGGCACGTGGGGAT,-0.19
2,CATGGCACGTGGAGGT,-0.03
3,TTTGTCACGTGCTAAG,0.14
4,GTTTTCACGTGTTGTT,0.4
5,AATCTCACGTGTTGGT,0.16
6,AGTCTCACGTGGATGG,0.13
7,TCTGGCACGTGGGATG,-0.1
8,AGAGGCACGTGAGGGC,0.21
9,GGGTTCACGTGTGAGA,0.39
10,ATGGTCACGTGATATC,0.33
11,ATGTACACGTGAGTTA,0.25
12,AATGACACGTGTCTTT,0.16
13,GACTGCACGTGGTGAG,-0.02
14,TTAGTCACGTGACGCG,0.22
15,GTGTTCACGTGTATCT,0.18
16,CGGCGCACGTGTGTGG,-0.16
17,GTTGGCACGTGTATAG,-0.06
18,AGGGCCACGTGGGCTA,-0.13
19,GGGAGCACGTGAGATA,0.19
20,TGTTACACGTGGAAGT,0.15
21,GATGCCACGTGGGGGA,-0.11
22,TATAGCACGTGATTGC,0.16
23,TATTGCACGTGCGCGG,-0.24
24,GGCTTCACGTGTCAGG,0.41
25,AAGTACACGTGGAGTG,-0.02
26,GCTTGCACGTGTGGAG,0.18

row,Sequence,relative binding free energy [kcal/mol]
1,AGGCGCACGTGTGGGA,0.03
2,TGGAACACGTGGGATA,0.03
3,TCTTACACGTGGGTTA,0.04
4,GGTGGCACGTGTTAAT,0.03
5,TGTTTCACGTGCGGGC,0.24
6,TGGTTCACGTGGAGCA,0.33
7,TTAGGCACGTGCAGAT,-0.1
8,CATTTCACGTGGGTAG,0.16
9,GTCGTCACGTGGGCGA,0.04
10,TTGTACACGTGGATAT,0.15
11,AAAGACACGTGTGGTA,0.09
12,GGTTACACGTGCGTTA,0.14
13,TTGGGCACGTGTTGTT,-0.12
14,TTGAGCACGTGAGGTA,0.13
15,AATGTCACGTGTGCTA,0.12
16,CTTGGCACGTGTGTGA,-0.18
17,TCCATCACGTGGTTGG,0.21
18,TTGTACACGTGAATTT,0.32
19,AATTTCACGTGGATGG,0.21
20,CTGTTCACGTGTACTG,0.28
21,TGTGGCACGTGAATGG,0.17
22,GTGTGCACGTGGACAA,0.07
23,CGTCTCACGTGTTGTG,0.04
24,AGGTTCACGTGTGATG,0.46
25,TAGTTCACGTGATAAA,0.4
26,GGATGCACGTGTTTCA,0.03

row,Sequence,relative binding free energy [kcal/mol]
1,TAGTACACGTGCGTGG,0
2,GGTTGCACGTGATTCG,0.25
3,TTTATCACGTGGAATT,0.24
4,TCGGGCACGTGGGTAA,-0.21
5,AGTGTCACGTGCCTTT,0.04
6,TACTGCACGTGTGGGA,0.05
7,CTGAGCACGTGTAATA,0.18
8,TGTTTCACGTGAATTG,0.4
9,TGTTACACGTGAGATT,0.35
10,ATGTACACGTGGATAT,0
11,ACAGACACGTGGGTGG,-0.25
12,GCGGGCACGTGATGTA,-0.05
13,AGTTCCACGTGGATTA,0.28
14,TCTGTCACGTGGGAGT,-0.08
15,TTCTGCACGTGATTTG,0.16
16,GATAGCACGTGTAGTA,0.09
17,AGTTTCACGTGGCGGG,0.16
18,TGTTGCACGTGGGTCT,-0.12
19,CGGGTCACGTGACAGG,0.1
20,GGGTGCACGTGTTTTA,0.13
21,GTTATCACGTGAAGTC,0.41
22,TTTGCCACGTGGCGGG,-0.36
23,GATCGCACGTGGAGTT,0.09
24,GGTTTCACGTGATGGT,0.41
25,GCATTCACGTGATTGG,0.25
26,GAGTGCACGTGTTTTC,0.12

row,Sequence,relative binding free energy [kcal/mol]
1,TGGTGCACGTGAAGAT,0.2
2,TCATGCACGTGTTATG,0.06
3,TAGGGCACGTGAAGAT,0.15
4,GGGGACACGTGATACG,0.19
5,TGTAGCACGTGAAGAA,0.26
6,GGGTACACGTGGGTTT,-0.04
7,ACATACACGTGTAGGG,0
8,TGATCCACGTGTGGTT,0.16
9,TAATTCACGTGTTGCG,0.28
10,CGGGTCACGTGGACTG,0.19
11,GTTCACACGTGGGCGT,-0.04
12,TTGTCCACGTGGTCTT,-0.06
13,AATTTCACGTGCTGGA,0.28
14,GCCTGCACGTGTGGGG,0.07
15,TTTGTCACGTGTAGTT,0.23
16,AGTTTCACGTGATATC,0.22
17,TGTGGCACGTGGGGCA,-0.25
18,ATTGACACGTGTCGTT,-0.04
19,AATTTCACGTGCGGGT,0.22
20,GCAATCACGTGGGGGG,0.02
21,ATAAGCACGTGGGGGC,-0.34
22,TTTGACACGTGGGTAG,0
23,TGCGGCACGTGTTTCG,-0.02
24,TAATGCACGTGTTCGT,-0.03
25,CAAAGCACGTGAGTGT,0.16
26,CGTGGCACGTGTGGTC,-0.05

row,Sequence,relative binding free energy [kcal/mol]
1,TTACGCACGTGTATTT,-0.17
2,TGATACACGTGGTGGA,0.05
3,ATTGTCACGTGAAGCT,0.25
4,AATGGCACGTGGGAAT,-0.11
5,ATTTTCACGTGGTGAG,0.3
6,AGTTTCACGTGGAATG,0.28
7,TTTTTCACGTGTAAAC,0.44
8,AGGTTCACGTGCATTT,0.18
9,TTTGACACGTGTGGTT,0.07
10,TTAGTCACGTGTCGGG,0.16
11,ATGAGCACGTGCTTGT,-0.19
12,GCGTTCACGTGGATAG,0.29
13,GTTCTCACGTGTAATT,0.32
14,TGGGTCACGTGTGCTT,0.12
15,CATGGCACGTGTGGGA,0.01
16,TTATGCACGTGGTCAT,-0.2
17,TATAACACGTGAATGT,0.15
18,GTAGTCACGTGTGCTC,0.33
19,GGCACCACGTGGGGTT,-0.07
20,TATGACACGTGGGAAT,-0.12
21,GGAGACACGTGACTTT,0.35
22,GGGGTCACGTGATAAC,0.44
23,TGACTCACGTGTCGTG,0.11
24,GATAGCACGTGCATGG,0.02
25,AAAGACACGTGGGTGT,-0.02
26,TCTTGCACGTGGGGCA,-0.08

row,Sequence,relative binding free energy [kcal/mol]
1,TGGTACACGTGGTTTT,0.2
2,AGTTGCACGTGGTCAG,-0.11
3,TATATCACGTGTATAT,0.14
4,AGTTGCACGTGGTGTG,-0.02
5,TAGGGCACGTGAATTT,0.22
6,GTGTGCACGTGTTGGT,0.06
7,GGAGGCACGTGGTAGT,-0.15
8,CTGGGCACGTGGGTGG,-0.31
9,GGCTTCACGTGGTCGT,0.07
10,ATAAACACGTGGGGTG,-0.18
11,GGACGCACGTGGTCGG,0.03
12,GGTTGCACGTGTGATT,0.13
13,GAGGTCACGTGGATTG,0.08
14,CGTGGCACGTGAAGTG,0.09
15,AGTTTCACGTGATGTA,0.35
16,GATTGCACGTGAGATG,0.3
17,CTGGGCACGTGTGTGC,-0.34
18,GGTTGCACGTGTTAAT,0.11
19,CAAGGCACGTGTAGTT,0
20,GGAGTCACGTGTAGAG,0.24
21,GTGCACACGTGGTCGG,0.03
22,CTGGTCACGTGGGGAT,0.08
23,TTAGACACGTGATGTA,-0.02
24,TTATTCACGTGATAGA,0.31
25,TGATGCACGTGTGAAA,-0.06
26,GGAGCCACGTGAGGTT,0.24

row,Sequence,relative binding free energy [kcal/mol]
1,GGGGGCACGTGTGTAC,0
2,GAAATCACGTGGGCGG,0.25
3,CATTTCACGTGGTAGA,0.32
4,GTTTACACGTGCTGAT,0.14
5,ACAGGCACGTGTTGGG,-0.16
6,AGGTACACGTGGGTCA,-0.01
7,TTGCGCACGTGGGCAA,-0.2
8,TATCACACGTGTTGGC,0.25
9,GTGGACACGTGGGATA,0.02
10,TTTCACACGTGATGGT,0.09
11,TTGGGCACGTGATTGA,0.12
12,AAGTTCACGTGTAGAG,0.31
13,TGTACCACGTGATGTG,0.12
14,TGTATCACGTGAAAAT,0.35
15,ATAGCCACGTGTTGTG,-0.11
16,ATGTACACGTGACGTG,0.22
17,TTGCACACGTGTGTTA,0.08
18,TAGTGCACGTGTTAAG,0
19,ATTAACACGTGCTTGG,-0.13
20,AAATGCACGTGGGCGT,-0.18
21,AGGGTCACGTGTGGAA,0.16
22,TATTTCACGTGCGTAG,0.31
23,GCTTACACGTGGAGTG,0.03
24,CGAGTCACGTGGGAGC,0.09
25,GTACGCACGTGGTATG,-0.21
26,CGGGGCACGTGGTATC,-0.17

row,Sequence,relative binding free energy [kcal/mol]
1,ACTTACACGTGTTGTT,0.08
2,TTAATCACGTGAGGAG,0.23
3,TTATTCACGTGTAAAA,0.22
4,GCGGGCACGTGCCGGT,-0.12
5,GGTTTCACGTGTCGAA,0.38
6,TCTGACACGTGGGGCT,-0.04
7,TCGTTCACGTGCGGTG,0.29
8,GGAGCCACGTGTTAGG,-0.01
9,GTGAGCACGTGGTTCG,-0.01
10,GGGAACACGTGTACGT,0.1
11,GTGCGCACGTGTTGCG,-0.06
12,CTTATCACGTGATGTG,0.12
13,GCGGTCACGTGCGTGT,-0.11
14,TAGTACACGTGTGTTG,-0.04
15,CTTGGCACGTGGAAGG,-0.03
16,GGGAGCACGTGTGTTG,0.01
17,TGTAACACGTGGAGAG,0.09
18,TTAGTCACGTGTAATG,0.19
19,TGAGTCACGTGACGTT,0.07
20,TGCTCCACGTGGGATT,0.05
21,AGTGCCACGTGTGTGA,-0.11
22,GAGATCACGTGGAGGT,0.15
23,ATTAACACGTGGGATG,-0.12
24,GTGGGCACGTGAAGGT,0.24
25,TGGTACACGTGTTTAT,-0.03
26,GGTATCACGTGTTCTT,0.22

row,Sequence,relative binding free energy [kcal/mol]
1,TAGGTCACGTGTATTG,0.04
2,ATGGACACGTGCAGGG,-0.04
3,CACGGCACGTGTGTGG,-0.15
4,TGAAACACGTGAGGAT,0.27
5,GTGGACACGTGTGTCT,0.09
6,GGTAACACGTGGTTCT,0.04
7,TTAAGCACGTGAGAGT,0.21
8,TGGTACACGTGTCATT,0
9,TATAGCACGTGTTCGG,-0.1
10,CAATACACGTGTTGTG,-0.07
11,GTTGTCACGTGGGCAC,0.07
12,GTTGTCACGTGAAATG,0.23
13,TAGTCCACGTGAGTGG,0.06
14,GGTATCACGTGATTGG,0.27
15,TTATGCACGTGGTGAC,-0.16
16,TCTTTCACGTGCTGGT,0.24
17,GTGGGCACGTGGGCTC,-0.14
18,TAGGCCACGTGATATG,0.07
19,TAGGGCACGTGAAAGA,0.18
20,GACGGCACGTGGGGAA,-0.14
21,TGTTTCACGTGTGTCG,0.2
22,TATTGCACGTGAGGTG,0.27

# Reference: the BET-seq Pho4 binding data (Le et al. 2018)
